Laboratory results taken from patent US20200164029A1 (ACCELERON PHARMA, published 2020).

What was measured:
[1] = molecular target: T1, FGF-2 (human, UniProt P09038 in part, limits assumed); experiment: SPR
T1 construct: also called basic fibroblast growth factor

[2] = molecular target: T2, VEGF (human, UniProt P15692-4 27-191, limits assumed); experiment: SPR
T2 construct: also called vascular endothelial growth factor
T2 sequence (looked up): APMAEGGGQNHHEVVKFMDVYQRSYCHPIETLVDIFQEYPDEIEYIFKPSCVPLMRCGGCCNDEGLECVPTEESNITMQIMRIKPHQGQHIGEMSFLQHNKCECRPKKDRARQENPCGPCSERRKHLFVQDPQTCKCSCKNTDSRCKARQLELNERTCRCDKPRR

[3] = molecular target: T3, human TGF-β3 (human, UniProt P10600 301-412); experiment: SPR ligand panel
T3 construct: also called hTGF-β3
T3 sequence (looked up): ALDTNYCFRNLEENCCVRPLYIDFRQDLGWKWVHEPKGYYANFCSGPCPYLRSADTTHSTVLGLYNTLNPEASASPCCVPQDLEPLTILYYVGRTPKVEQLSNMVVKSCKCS

[4] = molecular target: T4, human TGF-β2 (human, UniProt P61812 303-414); experiment: SPR ligand panel
T4 construct: also called hTGF-β2
T4 sequence (looked up): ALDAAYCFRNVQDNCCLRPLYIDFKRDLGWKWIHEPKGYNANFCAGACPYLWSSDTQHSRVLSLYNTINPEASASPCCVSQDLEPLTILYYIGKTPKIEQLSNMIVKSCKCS

[5] = molecular target: T5, human TGF-β1 (human, UniProt P01137 in part); experiment: SPR ligand panel
T5 construct: also called hTGF-β1
T5 sequence (P01137 279-390 limits assumed): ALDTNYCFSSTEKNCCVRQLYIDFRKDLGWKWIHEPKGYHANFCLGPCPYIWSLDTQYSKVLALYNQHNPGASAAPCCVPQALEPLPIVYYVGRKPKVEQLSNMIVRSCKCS

[6] = molecular target: T6, human activin A (human, UniProt P08476 311-426); experiment: SPR ligand panel
T6 construct: also called hActivin A
T6 sequence (looked up): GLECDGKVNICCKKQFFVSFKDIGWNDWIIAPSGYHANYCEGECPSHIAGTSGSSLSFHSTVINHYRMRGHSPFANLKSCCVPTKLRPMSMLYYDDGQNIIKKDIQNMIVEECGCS

[7] = molecular target: T7, human BMP-7 (human, UniProt P18075 293-431); experiment: SPR ligand panel
T7 construct: also called hBMP-7
T7 sequence (looked up): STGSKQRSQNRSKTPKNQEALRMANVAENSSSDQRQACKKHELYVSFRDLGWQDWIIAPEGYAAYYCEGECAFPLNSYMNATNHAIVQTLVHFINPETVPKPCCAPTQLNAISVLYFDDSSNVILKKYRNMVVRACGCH

[8] = molecular target: T8, hBMP-2/7 (human, UniProt P12643 283-396; P18075 293-431); experiment: SPR ligand panel
T8 construct: read as the BMP-2/BMP-7 heterodimer
T8 sequence (looked up) 1: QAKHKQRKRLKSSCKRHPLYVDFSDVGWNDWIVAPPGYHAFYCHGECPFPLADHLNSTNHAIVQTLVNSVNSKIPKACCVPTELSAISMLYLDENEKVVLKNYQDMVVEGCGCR
T8 sequence (looked up) 2: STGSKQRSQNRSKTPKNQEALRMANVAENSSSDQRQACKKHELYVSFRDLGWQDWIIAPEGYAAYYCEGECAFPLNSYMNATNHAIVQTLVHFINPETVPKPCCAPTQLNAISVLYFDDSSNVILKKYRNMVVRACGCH

[9] = molecular target: T9, human BMP-2 (human, UniProt P12643 283-396); experiment: SPR ligand panel
T9 construct: also called hBMP-2
T9 sequence (looked up): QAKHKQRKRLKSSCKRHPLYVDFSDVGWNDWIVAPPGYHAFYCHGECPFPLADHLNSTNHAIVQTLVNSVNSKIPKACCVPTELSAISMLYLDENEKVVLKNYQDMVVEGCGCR

[10] = molecular target: T10, human BMP-10 (human, UniProt O95393 317-424); experiment: SPR kinetics, CHO-cell-derived protein
T10 construct: also called hBMP-10
T10 sequence (looked up): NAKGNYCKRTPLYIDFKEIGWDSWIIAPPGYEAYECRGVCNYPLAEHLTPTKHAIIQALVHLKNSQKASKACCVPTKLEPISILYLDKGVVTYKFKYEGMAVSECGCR

[11] = molecular target: T10, human BMP-10; experiment: summary table of CHO-cell-derived fusion proteins; method not given
[12] = molecular target: T11, human BMP-9 (human, UniProt Q9UK05 320-429); experiment: as above
T11 construct: also called hBMP-9
T11 sequence (looked up): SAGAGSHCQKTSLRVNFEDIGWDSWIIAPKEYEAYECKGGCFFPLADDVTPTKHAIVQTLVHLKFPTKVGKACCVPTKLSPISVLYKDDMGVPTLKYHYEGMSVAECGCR

[13] = molecular target: T10, human BMP-10; experiment: cell-based or functional assay
[14] = molecular target: T11, human BMP-9; experiment: cell-based or functional assay
[15] = molecular target: T11, human BMP-9; experiment: SPR kinetics, captured CHO-cell-derived protein
Procedure: BMP-9 binding to captured CHO-cell-derived proteins was assessed at ligand concentrations of 0.0195-0.625 nM in two-fold increments. RU, response units.

[16] = molecular target: T10, human BMP-10; experiment: cell-based or functional assay; remark: listed apart in the source
[17] = molecular target: T11, human BMP-9; experiment: cell-based or functional assay; remark: listed apart in the source

T1 sequence (P09038 143-288 limits assumed): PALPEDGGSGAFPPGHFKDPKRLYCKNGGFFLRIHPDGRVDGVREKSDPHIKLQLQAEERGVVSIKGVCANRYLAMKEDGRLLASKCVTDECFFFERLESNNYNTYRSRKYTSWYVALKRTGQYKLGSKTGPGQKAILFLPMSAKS

B1: hENG(26-346)-hFc (truncated Fc) (Fc fusion)
chain: ETVHCDLQPVGPERDEVTYTTSQVSKGCVAQAPNAILEVHVLFLEFPTGPSQLELTLQASKQNGTWPREVLLVLSVNSSVFLHLQALGIPLHLAYNSSLVTFQEPPGVNTTELPSFPKTQILEWAAERGPITSAAELNDPQSILLRLGQAQGSLSFCMLEASQDMGRTLEWRPRTPALVRGCHLEGVAGHKEAHILRVLPGHSAGPRTVTVKVELSCAPGDLDAVLILQGPPYVSWLIDANHNMQIWTTGEYSFKIFPEKNIRGFKLPDTPQGLLGEARMLNASIVASFVELPLASIVSLHASSCGGRLQTSPAPIQTTPPTG[left out - human IgG1 Fc and a few adjoining residues]
Question: What does the source list for B1?
Answer: binding result [1]: no binding; binding result [2]: no binding; binding result [3]: no binding (tested: 50 nM); binding result [4]: no binding (tested: 100 nM); binding result [5]: no binding (tested: 100 nM); binding result [6]: no binding (tested: 100 nM); binding result [7]: no binding (tested: 100 nM); binding result [8]: no binding (tested: 100 nM); binding result [9]: no binding (tested: 100 nM); Kd [10]: 0.14 nM; koff [10]: 0.0028 s⁻¹; Kd [11]: 0.14 nM; koff [11]: 0.0028 s⁻¹; Kd [12]: 0.0043 nM; koff [12]: 0.00024 s⁻¹; Potency (cell-based IC50) [13]: 4.6 nM; Potency (cell-based IC50) [14]: 0.19 nM; Kd [15]: 0.0043 nM; koff [15]: 0.00024 s⁻¹; IC50 (nM), BRE-luciferase reporter-gene assay in A204 cells [16]: 4.6 nM; IC50 (nM), BRE-luciferase reporter-gene assay in A204 cells [17]: 0.19 nM
